Laboratory results taken from PubChem BioAssay AID1476 (National Center for Advancing Translational Sciences (NCATS), 2009).
About 4,500 (2.2%) of roughly 200,000 compounds were called active. Inconclusive means that the source gave no clear call. Such entries were picked first, then a sample of the others. The call rests on the fitted dose curve; in most records, active means well fitted inhibition curve with a large enough effect; inconclusive means small, poorly fitted or top-dose-only effect, or effect the other way; inactive means flat fitted curve, though single readings scatter. Where the call is inconclusive, the potency comes from a doubtful curve fit.
Further: nearly all actives have a fitted effect of over 40% in size.
Potency means the concentration at half of the fitted maximal effect; tags describe the fitted curve by direction and shape.
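Wherever max response, negative = inhibition is given: plate controls were enzyme without inhibitor for no effect and buffer without enzyme for full effect.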

The molecules below were run against Cruzipain (Trypanosoma cruzi) (UniProt P25779) (assay: qHTS Assay for Promiscuous and Specific Inhibitors of Cruzain (without detergent)). Conditions: purified cruzain, Z-FR-AMC fluorescence, no detergent.
Sequence of UniProt P25779 (P25779 whole entry, looked up): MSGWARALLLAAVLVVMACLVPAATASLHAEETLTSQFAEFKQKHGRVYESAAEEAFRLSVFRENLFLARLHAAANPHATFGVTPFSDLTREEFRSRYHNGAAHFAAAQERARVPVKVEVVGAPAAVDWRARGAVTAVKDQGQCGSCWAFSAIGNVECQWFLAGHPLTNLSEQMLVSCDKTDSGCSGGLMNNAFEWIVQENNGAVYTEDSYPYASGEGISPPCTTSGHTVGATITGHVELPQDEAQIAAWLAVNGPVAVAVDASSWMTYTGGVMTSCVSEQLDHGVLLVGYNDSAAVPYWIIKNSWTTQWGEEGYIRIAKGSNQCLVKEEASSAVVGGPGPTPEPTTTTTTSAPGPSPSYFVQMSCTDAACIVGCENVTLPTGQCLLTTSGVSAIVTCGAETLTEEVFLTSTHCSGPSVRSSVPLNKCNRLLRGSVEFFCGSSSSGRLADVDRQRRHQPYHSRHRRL
Method in brief: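 Purified cruzain at 1.5 nM, pre-incubated 15 min with compound at room temperature in 100 mM sodium acetate pH 5.5, 5 mM DTT, 0.00005% Triton X-100. Reaction started with 2 uM Z-FR-AMC; AMC fluorescence increase over 60 s gives rate.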
For `CCOC(=O)CSc1nc2c(sc3ccc([N+](=O)[O-])cc32)c(=O)n1Cc1ccco1`, the Potency was inconclusive: 39.8 µM [inhibitor, single point].
In the case of `O=C(Nc1ccc(F)cc1F)c1ccc2c(=O)n3c(nc2c1)CCCCC3`, the max response, negative = inhibition is reported as inactive: -3.34%.
`CC(Nc1ccc(Br)cc1)C(=O)N/N=C/c1ccccc1OCc1ccccc1` (centres undefined) was tested, and the Potency was inconclusive: 31.6 µM [inhibitor, single point].
With `COc1ccccc1-c1cc(C(=O)Nc2cc(Cl)ccc2O)no1` the max response, negative = inhibition was inactive: -13.3%.
For `O=C(Nc1ncc(Cc2cccc(C(F)(F)F)c2)s1)c1ccc(-c2cccc([N+](=O)[O-])c2)o1`, the Potency was active: 10 µM.
In the case of `Cc1cc(Oc2ccc(-c3nnc(-c4ccccc4)o3)cc2[N+](=O)[O-])ccc1Cl`, the Potency is reported as active: 12.6 µM.
For `CCCCn1c(NC(=O)c2ccco2)c(C(=O)OCC)c2nc3ccccc3nc21`, the Potency was inconclusive: 31.6 µM [activator, single point].
With `Clc1ccc(CSc2ncnc3c2ncn3[C@@H]2CCCCO2)cc1` the max response, negative = inhibition was inactive: -5.73%.
`Cc1ccc(C)c(Cn2c(CN(C)Cc3ccccc3)nc3c2c(=O)n(C)c(=O)n3C)c1` was tested, and the Potency was inconclusive: 31.6 µM [activator, single point].
`CCCC[C@@H]1C[C@H]1C(NS(=O)(=O)c1cccc2cccnc12)c1ccc(-c2ccccc2)cc1` (some centres undefined) was tested, and the Potency was inconclusive: 20 µM [inhibitor, partial curve].
`CS(=O)(=O)c1sc2nc(-c3ccccc3)cc(-c3ccccc3)c2c1N` was tested, and the Potency was inconclusive: 31.6 µM [inhibitor, single point].
In the case of `CCC(C)[C@H](NC(=O)NC1CC1)C(=O)O` (some centres undefined), the max response, negative = inhibition is reported as inactive: 7.87%.
For `CCCC12CN3CC(C)(CN(C1)C3c1cn(C)c3ccccc13)C2=O` (centres undefined), the Potency was inconclusive: 31.6 µM [activator, single point].
In the case of `CCOc1ccc(C2=C(C=Nc3c(C)n(C)n(-c4ccccc4)c3=O)C(c3ccc(F)cc3)c3ccccc3O2)cc1` (centres undefined), the Potency is reported as active: 3.16 µM.
In the case of `COc1ccc(C)cc1NC(=O)C(Sc1ccccc1)c1ccccc1` (centres undefined), the max response, negative = inhibition is reported as inactive: -12.8%.
`CCOc1cc(/C=N/NC(=O)Cc2ccc(C(F)(F)F)cc2[N+](=O)[O-])c(Br)cc1OC` was tested, and the Potency was inconclusive: 39.8 µM [inhibitor, single point].
`O=C(c1ccncc1)N1CCC[C@@]2(CCN(c3ccncc3)C2)C1` was tested, and the max response, negative = inhibition was inactive: -4.69%.
`Nc1c(C(=O)Nc2ccc(Br)cc2)sc2nc(-c3ccco3)ccc12` was tested, and the Potency was inconclusive: 31.6 µM [inhibitor, single point].
`COc1ccc(CCNC(=O)CS(=O)Cc2nc(-c3ccc(C)cc3)oc2C)c(OC)c1` (centres undefined) was tested, and the Potency was inconclusive: 39.8 µM [activator, single point].
`O=C(CSc1nnc(SCc2ccc(Cl)cc2)s1)N1CCOCC1` was tested, and the Potency was inconclusive: 31.6 µM [activator, single point].
For `CCOc1ccc(NC(=O)CSc2nnc(-c3ccc(C)cc3)c(-c3ccc(C)cc3)n2)cc1`, the max response, negative = inhibition was inactive: -20.6%.
In the case of `COc1cc(Cl)c(C)cc1NC(=O)CSc1nnc(-c2cccnc2)n1Cc1ccco1`, the Potency is reported as inconclusive: 39.8 µM [activator, single point].
`COCC(=O)Nc1ccc(Nc2ccccc2)cc1` was tested, and the Potency was active: 25.1 µM.
For `Cc1nc(-c2cccc(NS(=O)(=O)c3ccc4ccccc4c3)c2)cs1`, the Potency was active: 25.1 µM.
In the case of `CC(NC(=O)Cc1ccc(NC(=O)N2CCCCc3ccccc32)cc1)c1ccccc1` (centres undefined), the max response, negative = inhibition is reported as inactive: -3.56%.
In the case of `O=c1cc(-c2ccccc2)oc2cc(O)c(O)c(O)c12`, the Potency is reported as inconclusive: 25.1 µM [inhibitor, single point].
In the case of `Cc1ccc(NS(=O)(=O)c2cccc(C(=O)NCCc3c[nH]c4ccccc34)c2)c(C)c1`, the max response, negative = inhibition is reported as inactive: -17.2%.
`COc1ccc(-c2[nH]c(-c3ccccc3)nc2SCC(=O)Nc2ccc3c(c2)OCO3)cc1` was tested, and the Potency was inconclusive: 25.1 µM [inhibitor, single point].
`CCn1c(CN2CCCCC2)nc2cc(NC(=O)COc3ccc([N+](=O)[O-])cc3)ccc21` was tested, and the max response, negative = inhibition was inactive: -4.61%.
For `Clc1ccc(OCCn2cnc3ccccc32)c(Cl)c1`, the Potency was inconclusive: 39.8 µM [activator, single point].
`CCc1nccn1-c1cc(C(C)(C)C)nc2c(-c3ccc(Cl)cc3)cnn12` was tested, and the Potency was inconclusive: 25.1 µM [activator, partial curve].
With `Cc1cc(-c2cccs2)c2c(N)c(C(=O)c3ccc4c(c3)OCO4)sc2n1` the Potency was active: 25.1 µM.
In the case of `O=C1c2ccccc2C(Nc2ccc(Cl)cn2)N1c1cccnc1` (centres undefined), the max response, negative = inhibition is reported as inactive: -4.3%.
`CCOC(=O)C(C)NC(=O)c1cc2c(=O)[nH]c3ccc(C)cc3c2s1` (centres undefined) was tested, and the Potency was inconclusive: 31.6 µM [activator, single point].
